# Results reported in the supplement of paper PMC7726561.
# In all, about 1,400 sequences were measured (“thermal melting temperature (Tm) of peptide-HLA complex”: median about 60, lowest 2% from about 45 on). Some of the results follow.
# Target: HLA-B*07:02
# Assay: thermal melting temperature (Tm) of peptide-HLA complex; higher = more thermostable pHLA complex
# Details: C1R-B*07:02
# 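Further: cell lysates heated 10 min at 37–73 °C, remaining pHLA pulled down with pan-class I antibody, peptides quantified by DIA-MS versus 37 °C, Tm where half the complex is lost.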
row,Sequence,thermal melting temperature
1,APRPSIPV,61.8 °C
2,NPRIPYTEL,61.4 °C
3,RPDGFLLVL,61.1 °C
4,RPTLEGREL,56.1 °C
5,RPDDRSQGAII,50.1 °C
6,YPNGFRDVL,64.2 °C
7,SPVFRLETL,62.6 °C
8,TPRSYVGVTL,62.9 °C
9,TPEEVRLPL,62.1 °C
10,RPQLKGVVL,61.1 °C
11,APQRVRVTL,56.8 °C
12,IPSGIRSLEEL,61.6 °C
13,LVMAPRTVL,60 °C
14,LPHEVDKSEL,44.8 °C
15,SPYPQELTTL,60.1 °C
16,IPGARPVL,60.2 °C
17,IPRDPSQQEL,58.5 °C
18,LPSGFRKFL,60.4 °C

row,Sequence,thermal melting temperature
1,QPEWLRAEV,59.2 °C
2,KPVSVAISL,61.8 °C
3,SPAVERLISSL,63.3 °C
4,LPRTIFPTSTI,62.8 °C
5,QPMASFARDLL,61.4 °C
6,APASAAWRSVL,63.1 °C
7,TPRTNNIEL,58.2 °C
8,SPYGSDRLVQL,58.5 °C
9,SPNLRLLDL,63.4 °C
10,RPPNYSGTIAL,58.4 °C
11,LPRIQSTAL,64.2 °C
12,SPIGRDGKL,55.8 °C
13,QPRFAPVLI,61.1 °C
14,TPNDRFILL,60.4 °C
15,APRWVLSQV,62.4 °C
16,SPPLPFLSL,61.8 °C
17,IPRPDGIEW,58.4 °C
18,APRELGLGL,62.5 °C
